The source of these data is PubChem BioAssay AID488969 (Vanderbilt High Throughput Screening Facility, 2010).

Molecules are shown by their SMILES. Over roughly 110,000 compounds, “z-score” has its median near -0.1; the highest 2% begin near 2. This is one part of the list. Activity calls are given as the source filed them.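 How the source made its calls: active means z-score in the third read window above 3 or below -3; inactive means the rest.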

The test addresses Metabotropic glutamate receptor 8 (Rattus norvegicus) (UniProt P70579). Kind of test: rat mGluR8 modulators via GIRK flux, primary screen, cell-based, thallium flux, HTS (AID 488969). To be noted: HEK293 rat mGluR8, GIRK (G protein-gated inwardly rectifying potassium channel) thallium flux, FluoZin2; at 10 µM; stronger effect = higher value; submaximal glutamate (EC20) added with thallium.
UniProt P70579, sequence (P70579 whole entry, looked up): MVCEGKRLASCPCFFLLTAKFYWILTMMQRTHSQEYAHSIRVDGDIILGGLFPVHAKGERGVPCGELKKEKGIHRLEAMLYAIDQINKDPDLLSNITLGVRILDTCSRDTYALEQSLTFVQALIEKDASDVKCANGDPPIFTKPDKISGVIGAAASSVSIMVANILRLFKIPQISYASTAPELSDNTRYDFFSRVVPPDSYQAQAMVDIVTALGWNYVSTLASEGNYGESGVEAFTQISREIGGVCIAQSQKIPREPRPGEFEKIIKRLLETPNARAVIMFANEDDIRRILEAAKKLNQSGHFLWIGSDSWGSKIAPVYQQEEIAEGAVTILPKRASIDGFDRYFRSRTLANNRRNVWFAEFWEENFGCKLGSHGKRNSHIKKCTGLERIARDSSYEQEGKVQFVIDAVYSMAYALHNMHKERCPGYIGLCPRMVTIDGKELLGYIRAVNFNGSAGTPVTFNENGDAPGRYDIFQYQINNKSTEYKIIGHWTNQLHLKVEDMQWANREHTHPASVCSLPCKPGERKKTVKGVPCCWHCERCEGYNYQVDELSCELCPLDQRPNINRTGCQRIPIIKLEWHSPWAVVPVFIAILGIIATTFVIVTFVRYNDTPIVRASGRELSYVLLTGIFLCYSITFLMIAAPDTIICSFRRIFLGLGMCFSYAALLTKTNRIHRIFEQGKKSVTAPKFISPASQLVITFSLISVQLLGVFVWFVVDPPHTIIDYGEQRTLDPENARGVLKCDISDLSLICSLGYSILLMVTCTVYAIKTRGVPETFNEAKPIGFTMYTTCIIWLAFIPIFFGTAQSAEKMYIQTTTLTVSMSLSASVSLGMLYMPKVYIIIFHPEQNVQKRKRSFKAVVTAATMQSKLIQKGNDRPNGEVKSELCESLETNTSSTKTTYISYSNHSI
For `Cc1cc(C)n(-c2ccc(C(=O)C(C#N)c3nc4ccccc4n3C)cc2)n1` (stereo not given), the z-score was 1.

Take `O=C(CSc1nnnn1-c1ccccc1)c1cc2ccccc2oc1=O`: the z-score came to 0.0866. Under `COc1ccc(OCc2nn3c(-c4ccco4)nnc3s2)cc1` stands -0.257; under `CCOC(=O)C1=C(Nc2ccc(C)cc2)CC(C)(O)C(C(=O)OCC)C1c1ccccc1` (stereo not given), -0.0122.

`O=[N+]([O-])c1ccc(NCCCNS(=O)(=O)c2ccccc2)c(Cl)c1` yielded a z-score of -0.0392. The result for `N#C/C(=C\c1c[nH]c2ccccc12)C(=O)Nc1ncc(Cc2ccc(Cl)cc2Cl)s1` reads -0.72. `O=C(COc1ccccc1)NCC(=O)N/N=C/c1ccco1` registered a z-score of -0.0733.

Compound `CCOc1cc(NC(=S)NC)c(OCC)cc1NC(=O)c1ccco1` registered a z-score of -0.272. Under `Cc1ccc(SCc2cc(=O)[nH]c(Nc3nc(C)c4ccc(C)cc4n3)n2)cc1` stands -0.344. Turning to `Cc1ccccc1NS(=O)(=O)c1ccc(F)cc1`, the z-score turned out to be 0.00114.

The compound `C=CCn1c(SCC(=O)c2cc(C)n(C(C)COC)c2C)nc2sc(C)c(C)c2c1=O` (stereo not given) gave a z-score of -0.0745. `CC(C)c1ccc(OCC(=O)NC(=S)Nc2ccc3c4c(cccc24)CC3)cc1` displayed a z-score of 1.27.

In turn, `CCOC(=O)c1sc(-c2ccc(F)cc2)cc1NC(=O)Nc1ccccc1OC` returned a z-score of -0.333. Under `O=c1[nH]cnc2c1sc1nc(-c3ccccc3)c3c(c12)CCCC3` stands 0.204. Under `CCNCC(O)COCC(O)CNCC` (stereo not given) stands 1.73; under `N#Cc1cc2c(nc1SCC(=O)O)CCCC2`, 0.0732. Regarding `CCOC(=O)C1=C(CC)Nc2ccccc2N=C1NC(=O)Nc1ccc(Cl)c(Cl)c1`, the z-score was active: 5.4. The result for `COc1ccc(NS(=O)(=O)c2ccc(NC(=S)NC(=O)/C=C/c3ccc(C)cc3)cc2)nn1` reads -0.224. The result for `CC1(C)Cc2c(C#N)c(NCCN3CCOCC3)nc(-c3ccco3)c2CO1` reads -0.654; that for `CCCC/C(C)=N/NC(=O)CN(c1ccc(Br)cc1)S(=O)(=O)c1ccccc1`, -0.0503; that for `CCCCNC(=O)CSc1nc2ccsc2c(=O)n1C1CCN(C(=O)OCC)CC1`, 0.12. The result for `COc1ccc(N=Cc2c(O)[nH]c3ccccc23)cc1OC` reads -0.383; that for `O=C(O)CCSc1nnc(-c2ccncc2)n1-c1ccccc1`, -0.527; that for `CCCCn1c(CN(Cc2ccccc2)Cc2ccccc2)nc2c1c(=O)n(C)c(=O)n2C`, active: 3.38. `CCC(Sc1nncn1C)C(=O)Nc1nnc(-c2ccc(Cl)cc2)s1` (stereo not given): the z-score was -0.564. In turn, `COC(=O)c1ccccc1NC(=O)c1cccc(NC(=O)c2ccc(Br)o2)c1C` had a z-score of -0.654. Take `CC(=O)c1c(C)[nH]c(C(=O)OCc2nnc(-c3ccccc3)o2)c1C`: the z-score is 0.066. Turning to `O=c1oc2cc(Oc3c([N+](=O)[O-])cc(C(F)(F)F)cc3[N+](=O)[O-])ccc2c2c1CCCC2`, the z-score was -0.476. Under `CCOc1ccccc1NC1=C(Cl)C(=O)N(c2ccc(OC)cc2)C1=O` stands -0.367. In turn, `c1cnc2ccc(C(c3nnnn3C3CCCC3)N3CCN4CCCC4C3)cc2c1` (stereo not given) registered a z-score of -1.43.

For the compound `COc1cc(S(=O)(=O)N(Cc2ccccn2)Cc2ccccc2Cl)ccc1-n1cnnn1`, the z-score is -1.24. Under `CC1CCCC(C)N1NC(=O)c1ccc(Cl)c(S(N)(=O)=O)c1` (stereo not given) stands -0.158. Under `Fc1ccc(NC(=S)N/N=C/c2cccc(Br)c2)c(F)c1` stands active: 3.61. The compound `COC(=O)N/N=C(C)\C=C\c1ccco1` yielded a z-score of 0.602.

As for `COC(=O)Cc1nnc(NC(=O)C(C)C)s1`, the z-score was determined as 0.0291. The result for `Cc1ccc(Nc2nc(N)c([N+](=O)[O-])c(NCc3ccco3)n2)cc1` reads -0.288; that for `c1ccc(OCCOCCSc2ncccn2)cc1`, 0.944. The result for `O=C(CCc1ccccc1)Nc1cccc(NC(=O)CCc2ccccc2)c1` reads -0.164; that for `Cc1cc(C)c(OCC(=O)N/N=C/c2ccc3c(c2)OCO3)c(C)c1`, -0.033. `Cc1c(NC(=O)CN2C(=O)NC(C)(c3ccccc3)C2=O)c(=O)n(-c2ccccc2)n1C` (stereo not given): the z-score is 0.245. Under `CC1(C)CC(=O)C2=C(C1)N(c1ccc(F)cc1)C(N)=C(C#N)C2c1cccs1` (stereo not given) stands -0.505. In the case of `Cc1ccc(Cc2cnc(NC(=O)/C(C#N)=C/c3ccc(-c4ccc([N+](=O)[O-])cc4)o3)s2)cc1`, the z-score was -0.0684.

In the case of `CC(=O)c1ccc(NC(=O)c2cc(Cl)sc2Cl)cc1`, the z-score was -0.102. Under `CC(C)CNC(=O)C1CCN(Cc2ccc(OCc3ccccc3)cc2)CC1` stands 0.443; under `CC(C)=CCCC(C)CN1CCC(O)CC1` (stereo not given), -0.325. Turning to `CC1(NC(=O)N2CCOCC2)CCS(=O)(=O)C1` (stereo not given), the z-score is -0.187. Under `Cc1nc2ccc(NC(=O)c3nn(C(C)C)c(=O)c4ccccc34)cc2s1` stands -0.168. As for `COc1ccccc1C1C(C(=O)c2cc3ccccc3o2)=C(O)C(=O)N1CCN(C)C` (stereo not given), the z-score is -0.748. Under `CCOC(=O)C(NC(=O)c1ccccc1)(Nc1cc(C)on1)C(F)(F)F` (stereo not given) stands -0.179.

`O=c1oc(Nc2ccc(F)cc2)nc2ccccc12` displayed a z-score of -0.728. In turn, `CCN(C(C)=O)c1nnc(CSc2nc3ccccc3s2)s1` registered a z-score of -0.505. Under `CC(OC(=O)c1cc2sccc2n1C)C(=O)NCc1ccc(F)cc1` (stereo not given) stands -0.188; under `CCc1c(C)nc2c(C#N)c[nH]n2c1=O`, -2.49; under `Nc1scc(-c2ccncc2)c1Cl`, -0.259. On to `CC(C)(C)c1cc(NC(=O)CSc2nnc(NCc3ccccc3)s2)n(-c2ccccc2)n1`, for which the z-score is -0.496.

`Cc1ccc2nc(-c3cccnc3)c(NC3CCCCC3)n2c1` registered a z-score of 0.317. The result for `O=C(NCCC1=CCCCC1)C(c1ccccc1)c1ccccc1` reads -0.184; that for `O=C(c1ccc(COc2ccc3ccccc3c2)o1)N1N=C(C(F)F)CC1(O)C(F)F` (stereo not given), -0.0748; that for `Cc1ccc(NC(=S)NCCN2CCOCC2)cc1C`, -0.114.

Regarding `C=CCn1c(SCC(=O)Nc2cccc(C(=O)OC)c2)nnc1C(C)NC(=O)c1cccs1` (stereo not given), the z-score was -1.55. Turning to `Cc1cc(NC(=O)c2cncc(Br)c2)n(-c2ccccn2)n1`, the z-score is -0.0687. Compound `CCOC(=O)CSc1nc2ccccc2c(=O)n1CC1CCC(C(=O)NCc2ccco2)CC1` (stereo not given) had a z-score of -0.605.

`N#Cc1cccc(NC(=O)CN2NS(=O)(=O)c3ccccc3C2=O)c1` showed a z-score of -0.0578.

Turning to `CCN1C(=O)C(F)(CC)C(=O)c2ccccc21` (stereo not given), the z-score is -0.156. On to `COc1ccc(NC(=S)N2CCC(C(O)(c3ccccc3)c3ccccc3)CC2)cc1`, for which the z-score is 0.263. `COc1ccc(NC(=O)CCSc2cc(C)c3ccccc3n2)cc1` gave a z-score of -2.

Regarding `O=C(COc1cnc2ccccc2n1)NCCC1=CCCCC1`, the z-score turned out to be 0.0998. In turn, `Cn1c(C(=O)N2CCN(C(=O)c3ccco3)CC2)cc2c(=O)n(C)c3ccccc3c21` gave a z-score of -0.0609.

`Cc1ccccc1CS(=O)(=O)CCC(=O)N1CCN(c2ccc(N3CCOCC3)nn2)CC1` yielded a z-score of 0.315. Under `O=C(CSc1n[nH]c(=O)[nH]c1=O)c1ccccc1` stands 0.109; under `COc1ccccc1NC(C#N)c1ccccc1OCc1ccccc1` (stereo not given), -0.0312; under `Cc1cc2n(n1)C(c1ccc3c(c1)OCO3)Nc1ccccc1-2` (stereo not given), -0.00219.

Take `COc1ccc(-c2occ(C(=O)O)c2C(=O)O)cc1`: the z-score is 0.0956.

In turn, `O=S(=O)(c1ccccc1)N1CCN(Cc2ccccc2C(F)(F)F)CC1` showed a z-score of 0.0237.

`Cc1cc(C(=O)NC2CCCc3ccccc32)c(C)o1` (stereo not given) returned a z-score of -0.62.

The compound `O=C(CC(=O)NCc1cccnc1)NCc1cccnc1` yielded a z-score of 0.454. The result for `CC(=O)Nc1c(C(=O)O)oc2ccc(Cl)cc12` reads 1.18; that for `CCC(CO)n1c(SCc2cc([N+](=O)[O-])cc3c2OCOC3)nc2ccccc2c1=O` (stereo not given), -0.473; that for `O=C(NCCNC(=O)c1cc(OCC(F)(F)F)ccc1OCC(F)(F)F)Nc1cccc(C(F)(F)F)c1`, -0.607.

`O=C(CSc1nc2ccccc2c(=O)[nH]1)N1CCN(S(=O)(=O)c2ccccc2)CC1` had a z-score of -0.0737. `COc1ccc2nc(N3C(=O)/C(=C/c4ccc(Cl)cc4)NC3=S)sc2c1`: the z-score was active: 6.84.

For the compound `COc1cccc(-c2cc3nc4c(c(N5CCC6(CC5)OCCO6)n3n2)CCCC4)c1`, the z-score was -0.356.

Compound `O=C(CCCN1C(=O)c2ccccc2C1=O)NCCC1=CCCCC1` showed a z-score of -0.0374.

`COc1cc(NC(=O)c2cc3ccccc3o2)c(OC)cc1Cl` came in with a z-score of 0.325. The result for `CCn1cc(C(=O)OCC(=O)Nc2cc(S(=O)(=O)N(C)C)ccc2C)c(=O)c2ccc(C)nc21` reads -0.956; that for `CCCN1C(=O)c2cc(C(=O)NC3CCCCCC3)ccc2C1O` (stereo not given), 0.026; that for `CCOc1ccc(C2NC(=O)c3n[nH]c(C)c32)cc1` (stereo not given), 0.931.

On to `CC(C)(C)C1CCc2c(sc3nc(SCC(N)=O)nc(N)c23)C1` (stereo not given), for which the z-score is -0.548. On to `COc1ccc(CCNC(=O)CSC2=Nc3ccccc3C3=NC(C(C)C)C(=O)N23)cc1OC` (stereo not given), for which the z-score turned out to be 0.857.

Regarding `Nc1ccc2c(c1)C(=O)N(CCCCCC(=O)O)C2`, the z-score amounted to 0.116. Under `O=C1c2ccccc2-c2c1cccc2C(=O)N1CCCCC1` stands -0.115. Under `c1ccc(NCCCNc2ccccc2)cc1` stands -1.37; under `CCOC(=O)N1CCN(Cc2ccc(F)cc2F)CC1`, -0.33. In turn, `CSc1nc(N)c(C#N)c(-c2ccc(Cl)cc2)c1C#N` showed a z-score of -0.591. Consider `c1csc(CSc2nnc3sc4ccccc4n23)c1`, for which the z-score was -2.2. Under `COCCNC(=O)c1onc(CSc2ccccc2)c1C(=O)O` stands 0.0648. The result for `CC(=O)Nc1cc(OC(=O)c2ccco2)cc(OC(=O)c2ccco2)c1` reads -0.29.

`CC(=O)NC1CC2CCCC(C1)N2CC(=O)NCc1ccc(F)cc1` (stereo not given): the z-score is -0.661. The result for `N#CC1=C(N)Oc2c(ccc3ccccc23)C1c1ccsc1` (stereo not given) reads -0.0758. The result for `O=c1c2ccccc2nnn1CSc1nnnn1-c1ccccc1` reads -0.0586; that for `C/C(=N\NS(=O)(=O)c1ccc(C)cc1)c1cccs1`, 0.236. The result for `O=C(COC(=O)c1ccc(Br)o1)NCCCc1ccccc1` reads 0.403; that for `Cc1ccc(N(C)C(=O)N2CCN(S(=O)(=O)c3ccc4ccccc4c3)CC2)cc1`, 0.00301; that for `CCC(c1nc2ccccc2c(=O)n1CCN1CCOCC1)N1C(=O)c2ccccc2C1=O` (stereo not given), -0.114. For `NC(=O)c1ccc(-n2nnnc2Oc2ccccc2C(=O)N2CCOCC2)cc1`, the z-score was found to be 0.608.

Consider `CCCCS/C(N)=N/N=C/c1cc(C)ccc1O`, for which the z-score is -0.074. The result for `COC(=O)c1c(C#N)c(N)nc2c1CCCC2` reads 0.28; that for `CCOc1ccc(S(=O)(=O)NCCSCc2ccco2)cc1`, 0.163; that for `CN(C)CCCNC(=O)/C(=C\c1ccc(-c2ccc(Br)cc2)o1)NC(=O)c1ccccc1`, -0.228.

In turn, `Cc1nc2ccccc2n1CC(=O)OCC(=O)NCCc1ccccc1` showed a z-score of -0.808.
